Assay results published in PubChem BioAssay AID1159614 (National Center for Advancing Translational Sciences (NCATS), 2016).
The campaign covered roughly 45,000 compounds. About 65 (0.1%) were called active. Calls come from the whole dose curve; as a rule, active = well fitted activation curve with a large enough effect; inconclusive = small, poorly fitted or top-dose-only effect; inactive = no such curve, though single readings can be large or run the other way. Some of the results follow.

Molecular target: Galactocerebrosidase (Homo sapiens) (UniProt P54803)
Assay: A Novel Cell-Based Assay to Identify Small Molecules for B -Galactocerebrosidase; note: 0% is about no effect; nearly all actives have a fitted effect of over 65% in size
Conditions: 145M-Twi-hGALC-G270D cells (Twitcher mouse brain line with human GALC G270D), HMU-beta-Gal fluorescence, 48 h; series mostly up to 57.5 µM; activation: at the top concentration
Procedure, shortened: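 Mutant human GALC (G270D), stably expressed in a Twitcher mouse brain cell line lacking endogenous GALC, is measured in live-treated cells via 6-hexadecanoylamino-4-methylumbelliferyl-β-galactoside hydrolysis (0.1 mM final, pH 5.2) with fluorescent detection.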

Sequence of UniProt P54803 (P54803 whole entry, looked up): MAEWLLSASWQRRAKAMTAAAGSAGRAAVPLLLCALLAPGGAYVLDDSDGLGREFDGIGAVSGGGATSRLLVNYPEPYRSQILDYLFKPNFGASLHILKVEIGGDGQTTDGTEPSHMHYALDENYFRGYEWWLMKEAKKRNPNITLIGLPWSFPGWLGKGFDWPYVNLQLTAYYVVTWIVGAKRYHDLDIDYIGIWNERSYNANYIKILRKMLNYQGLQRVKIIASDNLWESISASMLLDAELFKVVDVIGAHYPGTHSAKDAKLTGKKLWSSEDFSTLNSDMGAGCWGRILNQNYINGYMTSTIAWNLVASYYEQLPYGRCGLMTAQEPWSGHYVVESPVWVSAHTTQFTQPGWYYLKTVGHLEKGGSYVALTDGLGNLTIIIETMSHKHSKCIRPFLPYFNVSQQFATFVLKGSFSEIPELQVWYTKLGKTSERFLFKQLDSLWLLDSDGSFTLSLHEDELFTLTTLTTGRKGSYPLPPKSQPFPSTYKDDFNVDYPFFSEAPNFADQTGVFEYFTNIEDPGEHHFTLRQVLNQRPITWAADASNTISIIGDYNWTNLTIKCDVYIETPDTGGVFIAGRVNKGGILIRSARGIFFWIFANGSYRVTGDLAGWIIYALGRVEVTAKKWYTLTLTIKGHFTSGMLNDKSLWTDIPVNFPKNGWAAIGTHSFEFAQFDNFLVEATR

activation, inactive:
O=C(Nc1ccc2oc(-c3cccnc3)nc2c1)c1ccc(Br)cc1 -3.05%
COc1ccc(NC(=O)Cn2c(=O)n(Cc3nc(-c4ccccc4)no3)c(=O)c3cc4c(cc32)OCO4)c(OC)c1 -14.2%
COc1ccc(Oc2c(C(F)(F)F)oc3c(CN4CCCC(C)C4)c(O)ccc3c2=O)cc1 (configuration not stated) 9.02%
CNc1c2c(nn1C)CCCC2 -13.5%
Cc1ccc(NC(=O)Cn2cc3c(n2)CCCC3)c(Cl)c1 -6.5%
COc1ccccc1N1CCN(c2ccc(=O)n(CC(=O)NCc3ccc(OC(C)C)cc3)n2)CC1 5.49%
CN(C)S(=O)(=O)c1ccc2c(c1)N(CC(=O)NCc1ccc(F)cc1)C(=O)CS2 -11.5%
COc1ccc(C)cc1NC(=O)Cn1c(=O)c(C(F)(F)F)nc2ccccc21 -11.6%
O=C(Nc1ccc2oc(-c3cccnc3)nc2c1)c1ccc(-c2ccccc2OC(F)(F)F)o1 -9.08%
COc1ccc(-n2nc(C(=O)Nc3cc(OC)c(OC)c(OC)c3)c(=O)n(C)c2=O)cc1 -15.1%
COc1ccc(-c2cc3ccc(O)c(CN4CCC(C)CC4)c3oc2=O)cc1 -24.3%
CC1=C(c2ccc(C)cc2)S(=O)(=O)NC1=NCCCN1CCN(c2ccccc2F)CC1 -14.1%
COc1ccc(-n2nc(C(=O)N3CCN(c4ccc(F)cc4)CC3)c3c4ccccc4n(C)c3c2=O)cc1 -9.97%
Cc1cccc(-c2nc3scc(CCNS(=O)(=O)c4ccc(Oc5ccccc5)cc4)n3n2)c1 -4.57%
Cc1nn(C)c2c1c(C(F)(F)F)cc(=O)n2CC(=O)NCCC(C)C -6.47%
O=C(O)c1ccc(Nc2nc3ccccc3n3cnnc23)cc1 -1.67%
CCc1ccc(-c2nn(CC(=O)NC3CCCCC3)c3c2cnc2ccc(C)cc23)cc1 -16.3%
CCc1ccccc1NS(=O)(=O)c1ccc2c(c1)CCN2C(=O)C1CC1 4.05%
c1ccc(N2CCN(Cc3cccn3-c3nnc(N4CCN(C5CCCCC5)CC4)s3)CC2)cc1 -20.2%
CCN(c1ccccc1C)S(=O)(=O)c1ccc(N2CCCCS2(=O)=O)cc1 -15%
O=C(CN1CCN(Cc2cccc(Cl)c2)C1=O)NCc1ccc(F)cc1 -11.9%
COc1ccc(C2CC(=O)N(Cc3ccc(F)cc3)c3ccccc3S2)cc1OC (configuration not stated) -16.4%
COc1ccccc1C(=O)NCCn1cc(SCc2ccc(C)cc2)c2ccccc21 -11.4%
CCCCCn1c(=O)[nH]c2cc(C(=O)NCc3ccc(Cl)cc3)ccc2c1=O 0.796%
CCC1CCc2nc3sc(C(=O)Nc4ccc(C)cc4)c(N)c3cc2C1 (configuration not stated) -12.2%
COc1ccc(OC)c2sc(N3CCN(C(=O)c4ccc5c(c4)CCCC5)CC3)nc12 -1.68%
Cn1c(=O)c2cc(C(=O)NCCCN3CCN(c4cccc(Cl)c4)CC3)sc2c2ccccc21 -12.4%
